Assays:
[1] = target: T1, Cmr (Rv1675c), member of the CRP/FNR super-family of transcription regulators (Mycobacterium tuberculosis H37Rv), P9WMH5; test: SEC; gel filtration of Cmr; conditions not shown (Supplementary Figure S1); conditions: remark: other sources report otherwise
T1 chain: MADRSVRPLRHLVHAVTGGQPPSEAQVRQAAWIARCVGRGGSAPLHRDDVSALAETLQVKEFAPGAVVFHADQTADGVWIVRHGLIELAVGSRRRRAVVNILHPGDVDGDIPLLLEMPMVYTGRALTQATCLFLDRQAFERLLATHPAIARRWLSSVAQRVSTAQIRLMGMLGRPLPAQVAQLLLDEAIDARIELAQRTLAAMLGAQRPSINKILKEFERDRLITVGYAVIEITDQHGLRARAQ

[2] = target: T1, Cmr (Rv1675c), member of the CRP/FNR …; test: cross-linking; chemical cross-linking of Cmr; reagent and conditions not shown (Supplementary Figure S1); conditions: remark: other sources report otherwise

B1: Cmr (Rv1675c), member of the CRP/FNR super-family of transcription regulators, P9WMH5 1-244 (natural protein)
chain: MADRSVRPLRHLVHAVTGGQPPSEAQVRQAAWIARCVGRGGSAPLHRDDVSALAETLQVKEFAPGAVVFHADQTADGVWIVRHGLIELAVGSRRRRAVVNILHPGDVDGDIPLLLEMPMVYTGRALTQATCLFLDRQAFERLLATHPAIARRWLSSVAQRVSTAQIRLMGMLGRPLPAQVAQLLLDEAIDARIELAQRTLAAMLGAQRPSINKILKEFERDRLITVGYAVIEITDQHGLRARAQ
For B1, the stoichiometry N [1] was 2 and the stoichiometry N [2] was 2.

Source: PMC5499769
